The list shows a part of the results.
test system: PF3D7_0420300 AP2 domain 1 (GST-tagged); assay: gcPBM binding intensity (ln(normalized median fluorescence intensity)); higher = stronger DNA binding
In short: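 The binding buffer was 1× PBS containing 1% milk, 0.2 mg/ml BSA, 0.5% salmon testes DNA and 0.03% Triton X-100. In it, GST-tagged P. falciparum DNA-binding domains expressed in E. coli were applied for 1 h to an Agilent 4 × 180k array of primer-extended double-stranded 36-bp intergenic genomic probes plus negative controls. Binding intensity, read with Alexa488 anti-GST antibody and a 488 nm scan, is the highest Masliner-normalised natural-log median intensity across replicate spots of either probe orientation.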

Sequence	gcPBM binding intensity (ln)
TTTTTTTTTTTTTTTACACACTCCAATAAAAAAGAA [CACACA_site2119]	8.91
TATAAAAATATATTTACACACTATAAATATCGAAAG [CACACA_site6896]	9.39
TAATTTATAAATATAATATTTATGTATATGATGTTT [CACACA_negctrl_site464]	9.19
TTCAAGATTTATTATACACACATATTAAAATATATA [CACACA_site4479]	9.22
AAACATTTTCATTTGACACACATCATATATTTATAT [CACACA_site1794]	9.53
AATCTATCAAAGTGTACATGCAATAAAAAAAAAAAA [TGCATGCA_site103]	9.33
AAAAAATTATTATGAACACACATTTATTATATTCAT [CACACA_site1566]	9.34
CTTTCATTTCTATCTACACACATATTTTTTCCAAGT [CACACA_site2972]	9.76
GCGTGCGTGTACTTAACACACATAATATGTATTTAT [CACACA_site1247]	9.47
TTTTTTTTTCCCCCATGTACATAAATAAGTATATCT [XGTACX_site6965]	9.32
AAAAGAAAAAAAAGTACACACATGTATATTAAGCGT [CACACA_site5402]	9.83
TTAATGTACAGACACCCACACACAAACAAATATATA [CACACA_site8888]	9.8
TAACTTAATTTTAATGCACACAATTTATATATATAT [CACACA_site6022]	9.37
AAAAATATATATATATATATATATATATTATTTTTT [TGCATGCA_negctrl_site378]	8.96
TATATATATAAATACAGTACATATATAATATTTTGA [XGTACX_site637]	9.28
ATATGTACTATACGCACACACACTCACATATATATA [CACACA_site3239]	10.1
AATTATATGAAATAAACACACATATGCAATATTGCA [CACACA_site6988]	9.47
TTGGATTTTTCCTATGAACACACGGGGTTACAATTA [CACACA_site449]	9.14
TCCAATAATTTATAAAAAAAAAAAGGGAAAATGTAT [TGCATGCA_negctrl_site492]	9.26
ATATATTTATTATTAACATGCAATCATTATATATAA [TGCATGCA_site404]	9.05
TTAATATGAGAATAATGTACAAGAAAATATTACATA [XGTACX_site6609]	9.21
AAAATAATAAAAAACTGTACGAATTAAAAATTAACA [XGTACX_site8454]	9.41

Sequence	gcPBM binding intensity (ln)
TACAACTTAATATGTACACACAAATATATATATATA [CACACA_site5138]	9.45
GAAATACATTTTAAAAAATAAGTAATTATAAAATAA [TGCATGCA_negctrl_site303]	9.08
GATACCTATAGACACACACACATACCTATATACATA [CACACA_site7586]	10.1
ATTCATCCAATAATGTGAATTATCATGATAAACTTA [TGCATGCA_negctrl_site406]	9
TTTATAAATAAACACACACACATGTGAACATAAAAA [CACACA_site5110]	9.94
ATCAAAATTGTCATTACACACCTTTATTTTTAGAAT [CACACA_site1813]	9.42
ATTATTCTATATGAAACATGCATACATTTGTATTTT [TGCATGCA_site823]	9.28
ATATATGTAAATGAATGTACATTATTTTATATATTA [XGTACX_site8460]	9.14
TTTTTAATTTTTTTTAAACACACACCGTACATTCAA [CACACA_site7925]	9.43
TATATACTTTATAAATGTACATATAATGTATTATTT [XGTACX_site7313]	9.1
TCATTTTAAATATGTGTGCACGTTATAATTTACACA	9.43
CATTTTCATTTTAAGGTGCATTAATATTTATTTTAA [GTGCAC_site9437]	9.22
TATATATATACATATTGTACATATTACATGCTATTA [XGTACX_site1184]	9.28
ATAGATAAATTTACGGGTACTAAAATGGAATATGAA [XGTACX_site8637]	9.41
TGTGTTCAGTATTGCACACACACAACCAAATAAAAA [CACACA_site379]	9.64
TATTTTACAATAACAATACACACTATAATATATATA [CACACA_site1391]	9.41
ATTCACATATTATCTTTACACACTATATATAAGTTT [CACACA_site8901]	9.75
CATCAAAATGCTACATGTACATATATATAATATATT [XGTACX_site5207]	9.32
AATATATATAAATAAACACACACAAATATAATAAAA [CACACA_site9176]	10.2
GAAATGAACAAGTGGGTGCGTATTAATTACATATTA	9.46
AAACTCTCTTATATTAAACACACATATATATATGTA [CACACA_site8865]	9.35
CCTTTATTAAATAAATGTACATATTTTTGTGTTCTT [XGTACX_site2052]	9.4

Sequence	gcPBM binding intensity (ln)
AAAAACTTTTCAAGTAGTACCATATCTACAATAGTA [XGTACX_site8927]	9.11
AAACAAAAGATATATACACACTAAACATAAAAAAAA [CACACA_site6161]	9.71
GTTGGTAGGATGTATGGTACACGTAGTATTTTTCTT [XGTACX_site2]	9.59
AATAAAAATAAAATTGTATATTTTAAATGAAAATAA [CACACA_negctrl_site898]	9.16
CAAATTGGGAAATTTTGTACATATAATAAGGATACC [XGTACX_site7728]	9.28
GATAATGAATGATGCACACTAAAAATATTCTACAAC [CACACA_site3622]	9.61
CCGTATATTTTATATAGTACTCATCATATATTTTTA [XGTACX_site5560]	9.23
ACATATGAAAAATATGCATGCAAATATTATTTAACA [TGCATGCA_site802]	9.25
TATGTATGTTAGTGTGCACACATAAATATTATATAT [CACACA_site9121]	9.69
TTTTTAAAATTTTTAAAAATATTATGTTAAATATAT [CACACA_negctrl_site415]	8.86
ATATATATGTATTTATGTACATATTATTTTTCTTAA [XGTACX_site8169]	9.18
AAAAAAAAAAAAATCTCACACATAAAGAGATTATGA [CACACA_site4408]	9
TTGAAAGAAAATAAAATAAAATAAAATAAAATAAAA [CACACA_negctrl_site859]	8.88
AATAAATAAAAATATATATATATAATATACATGTGT [TGCATGCA_negctrl_site369]	9.47
GGATGTATTTATATGTGTATGTGTTTGGAAATATGT [XGTACX_negctrl_site99]	9.61
AAAATTATATATTATAGTACATAAAATTTTGATATA [XGTACX_site994]	9.12
TTAGTTATTATAATTTGTACACAAATGGTAAAGTAT [XGTACX_site2343]	9.19
TTTGTACCGGCATTTTTTTTTTCTTTTTTTTTCCAA [XGTACX_negctrl_site323]	9.51
TATTAAAAATGTTAAGTGCAAAAATAAAAATTGTGG [GTGCAC_site9854]	9.29
TACATGAATATATAAAGAAAAAAAAAAAAACACACA [XGTACX_negctrl_site350]	9.71
TATAAATTATATATTTGTACGTATATCACATATATA [XGTACX_site7053]	9.16
TTTATTGAATAAAATGCACACGCATGCGTTATTTAT [CACACA_site9154]	9.18

Sequence	gcPBM binding intensity (ln)
TATATGTTATATTTAACACACATATAAGGTACATAT [CACACA_site612]	9.47
TTCTCATAATTAAATAGTACATATTTTAATAATCAC [XGTACX_site6116]	8.98
TTTTATAAACAGAGGGGTACGGGAAAAAAAAAAAAA [XGTACX_site1480]	9.29
TGTTAAAGAGAAAGTACTACACATATTATGTGTTTT [XGTACX_site1435]	9.24
TTAAAAAAAATTATTTGTACTTAAAAATTTTATATT [XGTACX_site8751]	8.83
AGAAAAAAAAAACACACACACACACCGTCAATATAA [CACACA_site7895]	10.1
TTTTTAAACCATGTTGTGCACATTTTTTTTGGATTT	9.38
ATATATTGGAGCACAACACACACAAGTATATATATG [CACACA_site8435]	9.93
AAAAAAAAAAAAAAAACATGCACAAATTATAAGTGA [TGCATGCA_site378]	9.35
ACTACATAATACTATTCACACATTTTTTTTTTTTTT [CACACA_site5794]	9.58
AAAAAAAAAAAAAACACACAGAACAATATATAAATA [CACACA_site982]	9.79
AAAAAAAAATACAAAATAGCAATAAATACACAAACG [GTGCAC_negctrl_site707]	10.1
TTCCTTTTTTTTTATTGTACAAAAATATCAAAAAGG [XGTACX_site8505]	8.81
ATTTTTTTTTTTTTTTTGGGGGGGTATACTTTTAAA [CACACA_negctrl_site1020]	10.8
ATAGAATAAATTTTGTCATTTATTCCTTATATATAA [GTGCAC_negctrl_site227]	8.98
TAAAAATAGGAATACGCACACGATGATTAATTTATA [CACACA_site1835]	9.27
AATTATATAACAAATTGTACGAATGAAAATATTATT [XGTACX_site4237]	9.4
TTTATATATATTTATACACACAAACATAATACTACT [CACACA_site5161]	9.55
TATAATGAGGATGATAGTACGTATTAGTATAAAAAA [XGTACX_site6623]	9.34
TTTTTAATTTTATATACACACATAAAATATATGAAG [CACACA_site3145]	9.18
TGTTATTATAACATTTTTTTCAAAATAGCTTTAGAA [CACACA_negctrl_site266]	8.59
AATTTATAAGAATAAAGTACTAAAGATACAACTTTA [XGTACX_site7153]	9.1

From the supplement of paper PMC11417369
